# Screen size: about 310,000 compounds; about 14,000 (4.5%) showed an effect of 50% or more. The effect is printed as a negative number. The list shows a part of the results.
# Target: human ether-à-go-go-related gene (hERG) potassium channel (human, UniProt Q12809)
# Experiment: primary screen, population patch clamp on CHO cells stably expressing hERG
# 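Also: peak tail current of the secondary pulse compared with the same well before compound.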
# Sequence of human ether-à-go-go-related gene (hERG) potassium channel (Q12809 whole entry, looked up): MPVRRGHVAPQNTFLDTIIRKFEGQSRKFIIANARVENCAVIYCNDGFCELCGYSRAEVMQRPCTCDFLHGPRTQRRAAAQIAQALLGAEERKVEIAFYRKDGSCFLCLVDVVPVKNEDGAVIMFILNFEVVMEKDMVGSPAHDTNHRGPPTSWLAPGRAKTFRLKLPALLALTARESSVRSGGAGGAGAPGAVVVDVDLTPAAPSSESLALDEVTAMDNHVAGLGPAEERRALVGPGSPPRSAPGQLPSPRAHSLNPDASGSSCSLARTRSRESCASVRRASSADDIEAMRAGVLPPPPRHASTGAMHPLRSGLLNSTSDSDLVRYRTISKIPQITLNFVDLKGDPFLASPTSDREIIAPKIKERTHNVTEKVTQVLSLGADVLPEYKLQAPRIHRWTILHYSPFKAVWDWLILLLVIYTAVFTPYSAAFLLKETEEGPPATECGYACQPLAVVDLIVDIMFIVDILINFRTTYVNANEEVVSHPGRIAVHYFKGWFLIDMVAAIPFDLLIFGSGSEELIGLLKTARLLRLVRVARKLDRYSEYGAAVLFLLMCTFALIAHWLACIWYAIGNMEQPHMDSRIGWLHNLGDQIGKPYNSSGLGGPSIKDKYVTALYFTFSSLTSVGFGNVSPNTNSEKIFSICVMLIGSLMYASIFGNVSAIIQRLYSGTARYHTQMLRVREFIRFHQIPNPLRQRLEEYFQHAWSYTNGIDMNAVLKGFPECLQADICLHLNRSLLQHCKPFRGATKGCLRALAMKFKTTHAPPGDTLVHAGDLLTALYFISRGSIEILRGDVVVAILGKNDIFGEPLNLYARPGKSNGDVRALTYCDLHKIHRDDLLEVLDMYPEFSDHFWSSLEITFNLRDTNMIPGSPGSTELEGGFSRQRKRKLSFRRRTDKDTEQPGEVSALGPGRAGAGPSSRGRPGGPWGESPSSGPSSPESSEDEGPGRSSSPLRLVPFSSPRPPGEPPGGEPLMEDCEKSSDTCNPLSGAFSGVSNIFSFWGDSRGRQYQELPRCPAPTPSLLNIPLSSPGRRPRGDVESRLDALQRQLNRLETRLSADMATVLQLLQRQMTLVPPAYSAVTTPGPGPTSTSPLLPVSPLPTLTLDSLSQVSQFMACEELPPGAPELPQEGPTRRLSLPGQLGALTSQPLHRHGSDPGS
row,SMILES,"hERG current change (%, negative = inhibition) at 10uM"
1,CCN(CCC#N)c1ccc(/C=N/Nc2nc(C)cc(=O)[nH]2)c(C)c1,6.77%
2,O=[N+]([O-])c1ccccc1SNc1ccccn1,1.54%
3,COc1ccc(NC(=O)COC(=O)C2CC2)c(OC)c1,-0.146%
4,Cc1nnc(SCC(=O)Nc2cc(S(C)(=O)=O)ccc2Cl)n1Cc1ccccc1,6.22%
5,CCc1nnc(NC(=O)CSc2nc3c(cc2C#N)CCCC3)s1,10.8%
6,O=C1c2cccc3cc([N+](=O)[O-])cc(c23)C(=O)N1c1ccccc1O,4.06%
7,CC12CCC(C/C1=N/OC(=O)c1cccc([N+](=O)[O-])c1)C2(C)C (centres unmarked),22.4%
8,CCc1ccc(OCC(=O)N2CC(C(N)=O)Oc3ccccc32)cc1 (centres unmarked),-38.8%
9,CCN(CC)C(=O)c1cc(Cl)ccc1NC(=O)c1ccco1,-3.78%
10,O=C(Nc1cccnc1)c1ccc(S(=O)(=O)c2ccccc2)cc1,14.9%
11,O=c1cc(CN2CCc3ccccc3C2)nc2sccn12,-8.07%
12,Cc1ccccc1NC(=O)c1ccc2nccnc2c1,-9.3%
13,Cc1cccn2c(=O)c3cc(C(=O)NCC4CCCO4)c(=N)n(C4CCCC4)c3nc12 (centres unmarked),-74.8%
14,Cc1ccc(NC(=O)CCN2C(=O)C3C4CCC(C4)C3C2=O)cc1[N+](=O)[O-] (centres unmarked),-0.749%
15,Nc1ccc(C(=O)[O-])cc1.[K+],17.1%
16,OCCSc1ncnc2c1oc1ccccc12,4.27%
17,COc1cc(S(=O)(=O)N2CCOCC2)cc(C(=O)OCC(=O)NC2CCCCC2)c1OC,3.92%
18,CCN(C(=O)CSc1ncnc2c1cnn2-c1ccccc1)C1CCS(=O)(=O)C1 (centres unmarked),3.53%
19,COc1ccc(CNC(=O)C(C)NCc2ccc(S(N)(=O)=O)cc2)cc1 (centres unmarked),7.7%
20,COc1ccc(C2(NC(C)=O)CCN(C(=O)c3cccs3)CC2)cc1,-15%
21,O=C(c1cc2ccc([N+](=O)[O-])cc2oc1=O)N1CCOCC1,-2.92%
22,CCOC(=O)c1sc(C)c2c1NC(c1ccc(N(C)C)cc1)NC2=O (centres unmarked),3.62%
23,COc1ccc(NC(=O)NC(C)C2CC3CCC2C3)cc1 (centres unmarked),5.11%

row,SMILES,"hERG current change (%, negative = inhibition) at 10uM"
1,CCOc1ccc(CN2CCN(C(=O)c3cccc4ccccc34)CC2)cc1.O=C(O)C(=O)O,-23.4%
2,COC(=O)COc1ccc(S(=O)(=O)Nc2ccc(NC(C)=O)cc2)cc1C,19.8%
3,COc1cccc(CC2(CO)CCCN(Cc3ccc(-c4ccco4)cc3)C2)c1 (centres unmarked),-3.75%
4,O=c1[nH]c2ccccc2nc1CCc1ccccc1,35.5%
5,CCCOc1cccc(-c2cc(C(=O)N/N=C/c3ccccn3)c3ccccc3n2)c1,0.224%
6,O=C(Oc1cccc2cccnc12)c1ccc(N2C(=O)C3C4CCC(C4)C3C2=O)cc1 (centres unmarked),6.05%
7,COc1ccc(S(=O)(=O)N(C)CC(=O)N2CCOCC2)cc1,-10.4%
8,COc1ccc(C(=O)C2CCCN(C(=O)c3noc4c3CCCC4)C2)cc1F (centres unmarked),-39.9%
9,CNC(=O)C1C2C=CC3(O2)C1C(=O)N(CCOC)C3C(=O)NCc1ccc(OC)cc1 (centres unmarked),19.1%
10,Cc1cccc(-n2c(C)n[nH]c2=S)c1C,17.4%
11,Cc1ccc(-c2nnn(CC(=O)N(CC(=O)NC3CCCC3)c3ccc(F)c(Cl)c3)n2)o1,2.35%
12,COc1ccc(CN2CCCC(C(=O)N3CCCCC3)C2)cc1OC.O=C(O)C(=O)O (centres unmarked),-25.5%
13,COc1ccc(S(=O)(=O)NCCC(=O)NCc2ccc(F)cc2)cc1,-26.3%
14,COC(=O)CCCc1nc2ccccc2s1,8.7%
15,CCCCn1nc(C(=O)N(CCOC)c2c(N)n(CCCC)c(=O)[nH]c2=O)c2ccccc2c1=O,6.16%
16,Cl.Nc1ncnc2sc3c(c12)CCNC3,25.4%
17,CCN(Cc1ccccc1)S(=O)(=O)c1ccc(C(=O)N(CCCN(C)C)c2nc3cc(OC)ccc3s2)cc1.Cl,-58.3%
18,O=C(Nc1ccc(Br)cc1)c1cnccn1,-2.9%
19,O=C(c1cccs1)N(Cc1ccccn1)Cc1ccco1,-9.53%
20,COC(=O)c1[nH]c2ccccc2c1NC(=O)c1ccccc1F,8.73%
21,O=C(CSC(=S)N1CCOCC1)Nc1ncc2c(n1)CCCC2=O,-7.16%
22,NC(=O)COC(=O)c1ccc(-c2ccccc2)cc1,14.2%
23,C=CCn1c(SCC(=O)Nc2ccc3c(c2)OCCO3)nc2cc(C(=O)O)ccc2c1=O,-1.2%

row,SMILES,"hERG current change (%, negative = inhibition) at 10uM"
1,Cc1ccc2oc(=O)cc(CN3CCN(C/C=C/c4ccccc4)CC3)c2c1,-76.9%
2,CCOC(=O)C1CCN(C(=O)CNS(=O)(=O)c2ccc(Br)s2)CC1,-28.2%
3,Nn1c(-c2ccccc2Cl)nnc1-c1ccccc1Cl,5.15%
4,O=C(CCC(=O)N1CCOc2ccccc21)Nc1ccccc1Cl,1.25%
5,CCOC(=O)c1c(C)n(C)c2ccc(OC)c(NC(=O)CCN3CCSCC3)c12,-8.68%
6,COc1ccc(-n2c(C)cc(/C=C3\C(=N)N4N=C(CC(=O)N5CCOCC5)SC4=NC3=O)c2C)c(OC)c1,12.6%
7,O=S(=O)(Nc1cccc(-n2cnnn2)c1)c1ccccc1,20.6%
8,O=C(CCNc1ccc(F)cc1)c1cccc([N+](=O)[O-])c1,-10.3%
9,COc1ccccc1CC(=O)O/N=C(\N)Cc1cccc2ccccc12,11.3%
10,CCCN1CCN(C(=O)c2cccc3c2C(=O)N(CCOC)C3)CC1,13%
11,CC(C)c1ccc(S(=O)(=O)N(C)C2(C)CCS(=O)(=O)C2)cc1 (centres unmarked),-46.9%
12,C=CCNC(=S)NNC(=O)c1ccc(OCCCC)cc1,10.2%
13,COc1ccc(OC)c(NC(=O)Cn2c(CCC(=O)O)ccc2-c2ccc(C)cc2)c1,-7.22%
14,CC(Sc1nnc(-c2cccnc2)n1C)C(=O)N1CCOCC1 (centres unmarked),-1.32%
15,COC(=O)C1=C(C)N=C2SC(C#N)=C(N)N2C1c1cc(OC)c(OC)c(OC)c1 (centres unmarked),-11.9%
16,N#CCCN1CCN(CCC#N)CC1,0.67%
17,Cc1nc2ccc(NC(=O)CSc3nnc(C)s3)cc2[nH]1,4.4%
18,CC(C)(C)OC(=O)N1CCC(CNC(=O)c2ccc(F)cc2F)CC1,-4.87%
19,O=C(COC(=O)c1cccc([N+](=O)[O-])c1)Nc1ccc(Cl)cn1,9.2%
20,CCO[C@@H]1OC(C(N)=O)=C[C@H](C2CCCCC2)[C@H]1CCCO,-2.51%
21,CC(C)C[C@@H](C(=O)NCc1ccco1)N1C(=O)N2CCc3c([nH]c4ccccc34)[C@@]2(C)C1=O,-16.1%
22,COc1cc(OC)cc(C(=O)N[C@H](C(=O)Nc2nc(-c3ccc(OC)c(OC)c3)cs2)C(C)C)c1,-6.07%
23,CCOC(=O)c1cc(Br)c(=O)n2ccccc12,-9.01%

row,SMILES,"hERG current change (%, negative = inhibition) at 10uM"
1,O=C(CN1CCCC1)Nc1ccc(OCc2ccccc2)cc1,-54.1%
2,Cc1ccc(N2C(=O)CC(N(O)C3CC(=O)N(c4ccc(C)cc4)C3=O)C2=O)cc1 (centres unmarked),-9.78%
3,O=C(COC(=O)c1cc([N+](=O)[O-])ccc1N1CCOCC1)c1ccccc1Cl,-2.75%
4,O=C(c1cc(COc2ccc(F)cc2Cl)on1)N1CCN(c2cnccn2)CC1,-46.9%
5,O=C(COc1ccccc1)Nc1c2c(nn1-c1ccccc1)CS(=O)(=O)C2,-37.3%
6,Clc1ccc2c(N/N=C/c3cccc(Br)c3)ccnc2c1,-5.99%
7,Cc1nnc(SCC(=O)N(C)CC(=O)Nc2ccccc2Cl)s1,2%
8,CC1CC(C)CN(CCCNC(=O)c2ccc3c(c2)ncn3C2CCCC2)C1 (centres unmarked),-20.7%
9,CCOC(=O)c1c(C)cc(C)n2c1nc1ccccc12,-38.8%
10,O=C(CN(Cc1ccccc1)C(=O)CCC(=O)Nc1ccccn1)NCCc1ccccc1,-52.4%
11,CC1=[N+]([O-])C2(N)CCc3nonc3C2(O)C1 (centres unmarked),-0.461%
12,COc1ccc(-n2c(SCC(=O)N3CCCCC3)nc(O)cc2=O)cc1,-8.33%
13,O=C(c1cccc(NC2=NC3CS(=O)(=O)CC3S2)c1)N1CCN(c2ccc(F)cc2)CC1 (centres unmarked),8.77%
14,Clc1ccc2c(N/N=C/c3ccccc3Br)ccnc2c1,16.3%
15,Cc1nnsc1Sc1ccccn1,28.2%
16,Nc1cccnc1Sc1cccc(Cl)c1,-6.62%
17,CC(=O)Nc1ccc(S(=O)(=O)N2CCC3(CC2)OCCO3)cc1,17.9%
18,O=C(/C=C/c1cccc([N+](=O)[O-])c1)NCCSCc1ccc(Cl)cc1Cl,4.75%
19,COC(=O)N1[C@H](C)C=C[C@]1(Cc1ccccc1)C(=O)OC,-2.17%
20,N#Cc1ccsc1NC(=O)C1CCN(C(=O)c2ccc(F)cc2)CC1,-45.7%

# From publication PMC4336329 (PLoS ONE, 2015)
